IC50 is the fitted dose that halves viability relative to control wells, and lower means more sensitive; fits outside the tested doses are given as limits. AUC is the area under the same curve over the 256-fold range up to the top dose, as a fraction: 1 means no effect, lower means more sensitive. For part of these data: Where the top dose is marked as inferred, it is not printed in the source and was worked back from the curve model. For part of these data: Where an entry number is given, a second screen of the drug exists; the two often differ.
Legend:
Assay in all cases: Viability of human cancer cell lines after 72 h of drug (GDSC screen)
[1] = compound: C/C(=C\c1csc(C)n1)[C@@H]1C[C@@H]2O[C@]2(C)CCC[C@H](C)[C@H](O)[C@@H](C)C(=O)C(C)(C)[C@@H](O)CC(=O)O1 [Epothilone B]; conditions: top dose 0.032 µM; top dose inferred
Protocol: (§1)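 Human cancer cell lines in 384-well plates, medium with 10% serum, drug for 72 h over a 256-fold dose range (nine 2-fold or five 4-fold steps up to the top dose). Adherent lines were fixed and stained with the nucleic acid dye Syto60, suspension lines read with resazurin; signal relative to control wells, capped at 0 and 100%. One two-parameter sigmoid per drug and line, fitted in a mixed model over all curves with the slope shared within a line.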

[2] = compound: CC(C)CC(=O)Nc1n[nH]c2c1CN(C(=O)C1CCN(C)CC1)C2(C)C [PHA-793887]; conditions: top dose 10.24 µM
Protocol: as §1

[3] = compound: CCCS(=O)(=O)Nc1ccc(F)c(C(=O)c2c[nH]c3ncc(Cl)cc23)c1F [PLX4720]; conditions: top dose 10 µM
Protocol: as §1

[4] = compound: C[C@@H](N)c1ccc(C(=O)Nc2ccnc3[nH]ccc23)cc1 [Y-39983]; conditions: top dose 20 µM; top dose inferred
Protocol: as §1

[5] = compound: NC(=O)Nc1sc(-c2ccc(F)cc2)cc1C(N)=O [TPCA-1]; conditions: top dose 20 µM
Protocol: as §1

[6] = screen: GDSC drug entry 1371, top dose inferred

| Cell Line | AUC [1] | IC50 [1] [µM] | AUC [2] | IC50 [2] [µM] | AUC ([3]; screen: GDSC drug entry 1036) | IC50 ([3]; screen: GDSC drug entry 1036) [µM] | AUC [3, 6] | IC50 [3, 6] [µM] | AUC [4] | IC50 [4] [µM] | AUC [5] | IC50 [5] [µM] |
| --- | --- | --- | --- | --- | --- | --- | --- | --- | --- | --- | --- | --- |
| NCI-H1688 (small cell lung carcinoma, adherent) | 0.86 | 0.0315 | 0.928 | > 10.2 | 0.962 | > 10 | 0.984 | > 10 | 0.95 | > 20 | 0.688 | 4.46 |
| NCI-H1693 (lung adenocarcinoma, adherent) | 0.89 | > 0.032 | 0.955 | > 10.2 | 0.957 | > 10 | 0.955 | > 10 | 0.976 | > 20 | 0.802 | 18.2 |
| NCI-H1703 (lung adenocarcinoma, adherent) | 0.672 | 0.00672 | 0.835 | 8.93 | 0.981 | > 10 | 0.974 | > 10 | 0.977 | > 20 | 0.926 | > 20 |
| NCI-H1755 (lung adenocarcinoma, adherent) | 0.921 | > 0.032 | 0.984 | > 10.2 | 0.913 | > 10 | 0.954 | > 10 | 0.984 | > 20 | 0.458 | 0.94 |
| NCI-H1781 (lung adenocarcinoma, adherent) | 0.795 | 0.0149 | 0.989 | > 10.2 | 0.989 | > 10 | 0.881 | > 10 | 0.954 | > 20 | 0.956 | > 20 |
| NCI-H1792 (lung adenocarcinoma, adherent) | 0.696 | 0.00666 | 0.98 | > 10.2 | 0.985 | > 10 | 0.962 | > 10 | 0.963 | > 20 | 0.862 | 14.4 |
| NCI-H1793 (lung adenocarcinoma, adherent) | 0.802 | 0.024 | 0.982 | > 10.2 |  |  | 0.968 | > 10 | 0.98 | > 20 | 0.963 | > 20 |
| NCI-H1915 (large cell lung carcinoma, adherent) | 0.664 | 0.00579 | 0.776 | 4.17 |  |  | 0.965 | > 10 | 0.878 | > 20 | 0.908 | > 20 |
| NCI-H1944 (lung adenocarcinoma, adherent) | 0.529 | 0.00241 | 0.544 | 0.852 | 0.968 | > 10 | 0.984 | > 10 | 0.918 | > 20 | 0.673 | 3.94 |
| NCI-H1993 (lung adenocarcinoma, adherent) | 0.887 | > 0.032 | 0.92 | > 10.2 | 0.95 | > 10 | 0.973 | > 10 | 0.961 | > 20 | 0.92 | > 20 |
| NCI-H2009 (lung adenocarcinoma, adherent) | 0.366 | 0.000835 | 0.986 | > 10.2 | 0.952 | > 10 | 0.965 | > 10 | 0.982 | > 20 | 0.932 | > 20 |
| NCI-H2029 (small cell lung carcinoma, adherent) | 0.989 | > 0.032 | 0.927 | > 10.2 |  |  | 0.992 | > 10 | 0.981 | > 20 | 0.949 | > 20 |
| NCI-H2030 (lung adenocarcinoma, adherent) | 0.367 | 0.000811 | 0.783 | 4.94 | 0.982 | > 10 | 0.934 | > 10 | 0.938 | > 20 | 0.794 | 10.7 |
| NCI-H2052 (mesothelioma, adherent) | 0.941 | > 0.032 | 0.971 | > 10.2 | 0.982 | > 10 |  |  | 0.966 | > 20 | 0.954 | > 20 |
| NCI-H2085 (lung adenocarcinoma, adherent) | 0.701 | 0.00775 | 0.936 | > 10.2 | 0.97 | > 10 | 0.985 | > 10 | 0.936 | > 20 | 0.81 | 11.6 |
| NCI-H2087 (lung adenocarcinoma, semi-adherent) | 0.577 | 0.00331 | 0.795 | 5.17 | 0.97 | > 10 | 0.957 | > 10 | 0.986 | > 20 | 0.83 | 13.9 |
| NCI-H2110 (non-small cell lung carcinoma, adherent) | 0.525 | 0.00234 | 0.676 | 2.01 | 0.95 | > 10 | 0.985 | > 10 | 0.81 | 10.9 | 0.783 | 8.67 |
| NCI-H2122 (lung adenocarcinoma, adherent) | 0.259 | 0.000431 | 0.933 | > 10.2 |  |  | 0.834 | 5.96 | 0.979 | > 20 | 0.952 | > 20 |
| NCI-H2170 (lung squamous cell carcinoma, adherent) | 0.551 | 0.00277 | 0.951 | > 10.2 |  |  | 0.981 | > 10 | 0.98 | > 20 | 0.958 | > 20 |
| NCI-H2172 (non-small cell lung carcinoma, adherent) | 0.981 | > 0.032 | 0.983 | > 10.2 | 0.977 | > 10 | 0.981 | > 10 | 0.972 | > 20 | 0.911 | > 20 |
| NCI-H2291 (lung adenocarcinoma, adherent) | 0.975 | > 0.032 | 0.984 | > 10.2 | 0.979 | > 10 | 0.982 | > 10 | 0.966 | > 20 | 0.98 | > 20 |
| NCI-H2342 (lung adenocarcinoma, adherent) | 0.349 | 0.00073 | 0.984 | > 10.2 | 0.969 | > 10 | 0.959 | > 10 | 0.986 | > 20 | 0.955 | > 20 |

| Cell Line | AUC [1] | IC50 [1] [µM] | AUC [2] | IC50 [2] [µM] | AUC ([3]; screen: GDSC drug entry 1036) | IC50 ([3]; screen: GDSC drug entry 1036) [µM] | AUC [3, 6] | IC50 [3, 6] [µM] | AUC [4] | IC50 [4] [µM] | AUC [5] | IC50 [5] [µM] |
| --- | --- | --- | --- | --- | --- | --- | --- | --- | --- | --- | --- | --- |
| NCI-H2347 (lung adenocarcinoma, adherent) | 0.856 | > 0.032 | 0.905 | > 10.2 | 0.982 | > 10 | 0.979 | > 10 | 0.983 | > 20 | 0.876 | > 20 |
| NCI-H2405 (lung adenocarcinoma, adherent) | 0.666 | 0.00613 | 0.931 | > 10.2 | 0.981 | > 10 | 0.966 | > 10 | 0.955 | > 20 | 0.879 | > 20 |
| NCI-H2444 (non-small cell lung carcinoma, adherent) | 0.951 | > 0.032 | 0.988 | > 10.2 | 0.987 | > 10 | 0.987 | > 10 | 0.988 | > 20 | 0.967 | > 20 |
| NCI-H2452 (mesothelioma, adherent) | 0.929 | > 0.032 | 0.984 | > 10.2 | 0.954 | > 10 | 0.901 | > 10 | 0.981 | > 20 | 0.98 | > 20 |
| NCI-H3122 (lung adenocarcinoma, adherent) | 0.402 | 0.00107 | 0.719 | 2.73 | 0.972 | > 10 | 0.985 | > 10 | 0.915 | > 20 | 0.939 | > 20 |
| NUGC-3 (stomach, adherent) | 0.429 | 0.00125 | 0.926 | > 10.2 | 0.882 | > 10 | 0.957 | > 10 | 0.959 | > 20 | 0.946 | > 20 |
| NUGC-4 (stomach, adherent) | 0.554 | 0.00282 | 0.973 | > 10.2 | 0.988 | > 10 | 0.986 | > 10 | 0.856 | 16.2 | 0.613 | 2.56 |
| NY (osteosarcoma, adherent) | 0.509 | 0.00212 | 0.978 | > 10.2 | 0.915 | > 10 | 0.89 | > 10 | 0.984 | > 20 | 0.951 | > 20 |
| OAW-28 (ovary, adherent) | 0.687 | 0.00774 | 0.938 | > 10.2 | 0.933 | > 10 | 0.964 | > 10 | 0.983 | > 20 | 0.739 | 7.38 |
| OAW-42 (ovary, adherent) | 0.505 | 0.00207 | 0.876 | > 10.2 | 0.961 | > 10 | 0.978 | > 10 | 0.982 | > 20 | 0.966 | > 20 |
| OCUM-1 (stomach, adherent) | 0.808 | 0.0188 | 0.931 | > 10.2 | 0.975 | > 10 | 0.985 | > 10 | 0.971 | > 20 | 0.977 | > 20 |
| OE19 (oesophagus, adherent) | 0.602 | 0.00397 | 0.986 | > 10.2 | 0.975 | > 10 | 0.985 | > 10 | 0.985 | > 20 | 0.986 | > 20 |
| OE21 (oesophagus, adherent) | 0.58 | 0.00358 | 0.949 | > 10.2 | 0.965 | > 10 | 0.914 | > 10 | 0.963 | > 20 | 0.906 | > 20 |
| OE33 (oesophagus, adherent) | 0.673 | 0.00673 | 0.924 | > 10.2 | 0.976 | > 10 | 0.982 | > 10 | 0.971 | > 20 | 0.981 | > 20 |
| OSC-19 (head and neck, adherent) | 0.386 | 0.00096 | 0.916 | > 10.2 | 0.972 | > 10 | 0.984 | > 10 | 0.978 | > 20 | 0.882 | > 20 |
| OSC-20 (head and neck, adherent) | 0.41 | 0.00108 | 0.857 | > 10.2 | 0.886 | > 10 | 0.909 | > 10 | 0.961 | > 20 | 0.856 | > 20 |
| OV-90 (ovary, adherent) | 0.803 | 0.0213 | 0.864 | > 10.2 | 0.964 | > 10 | 0.948 | > 10 | 0.96 | > 20 | 0.928 | > 20 |
| OVCAR-3 (ovary, adherent) | 0.622 | 0.00448 | 0.987 | > 10.2 | 0.963 | > 10 | 0.97 | > 10 | 0.984 | > 20 | 0.983 | > 20 |
| OVCAR-5 (ovary, adherent) | 0.542 | 0.00266 | 0.764 | 4.45 | 0.982 | > 10 | 0.976 | > 10 | 0.885 | > 20 | 0.908 | > 20 |
| OVCAR-8 (ovary, adherent) | 0.418 | 0.00122 | 0.854 | 6.8 | 0.968 | > 10 | 0.989 | > 10 | 0.883 | 17.6 | 0.837 | 11.5 |
| OVISE (ovary, adherent) | 0.832 | 0.0305 | 0.683 | 2.47 | 0.872 | > 10 | 0.978 | > 10 | 0.968 | > 20 | 0.839 | > 20 |

Reference: the supplement of paper PMC4967469
